# Some of the results follow. These are noisy estimates, calculated here from bound and input reads.
# Molecular target: T1, Pho4 (S. cerevisiae) (UniProt P07270)
# T1 sequence: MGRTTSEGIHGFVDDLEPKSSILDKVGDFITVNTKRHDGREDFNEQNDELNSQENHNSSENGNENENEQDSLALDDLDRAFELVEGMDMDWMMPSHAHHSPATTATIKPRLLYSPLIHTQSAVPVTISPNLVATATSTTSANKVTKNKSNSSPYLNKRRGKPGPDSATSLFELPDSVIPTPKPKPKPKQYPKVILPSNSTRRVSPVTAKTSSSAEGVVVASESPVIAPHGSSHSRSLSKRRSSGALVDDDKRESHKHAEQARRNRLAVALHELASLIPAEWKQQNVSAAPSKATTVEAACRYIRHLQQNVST
# Experiment: relative binding free energy (BET-seq); higher = weaker binding
# Settings: reference: library average
row,Sequence,relative binding free energy [kcal/mol]
1,GTATTCACGTGGCGTT,0.18
2,TGGGACACGTGTTGCG,0.13
3,TGCAACACGTGTTGTT,0
4,ACGTTCACGTGTCGTT,0.3
5,GGAATCACGTGGGGCT,0.03
6,GGTTACACGTGCGGTA,0.09
7,AGGGACACGTGTTGGA,0.12
8,TTCAGCACGTGGCGGT,-0.12
9,TGCTGCACGTGTGAAG,-0.01
10,GTTGACACGTGAGCGT,0.14
11,TACTTCACGTGGTTGT,0.27
12,GAGTTCACGTGGAAAA,0.58
13,AGGTCCACGTGGTGTT,-0.07
14,GTGGTCACGTGTGCTC,0.1
15,TAGTGCACGTGTCGAA,-0.05
16,AGGGCCACGTGGGTAG,-0.17
17,ACGTACACGTGGTGTG,-0.05
18,AGTATCACGTGTAATT,0.06
19,GGGGGCACGTGATCGT,0
20,TGGCTCACGTGGTAAG,0.09
21,ATTGTCACGTGGGACG,0
22,AAGGGCACGTGAGCGG,0.11
23,GTAGACACGTGGTCTG,-0.1

row,Sequence,relative binding free energy [kcal/mol]
1,AGAGTCACGTGTTTTC,0.1
2,TAGCGCACGTGGGCTT,-0.06
3,CGTAACACGTGTGGAT,0.12
4,GTTTTCACGTGTCATC,0.3
5,GGGGGCACGTGCGCGA,-0.21
6,TAGGACACGTGAGGAA,0.23
7,ATAATCACGTGGGATT,0.01
8,CTGTGCACGTGGTTGT,-0.07
9,TAGATCACGTGGCATG,0.02
10,TGCCGCACGTGGTGTG,-0.28
11,TTATGCACGTGTTGAA,0
12,CGGGTCACGTGTATGA,0.3
13,GCCTTCACGTGGGGTG,0.05
14,ACGTCCACGTGGGGGT,-0.09
15,CCTTTCACGTGGTTAT,0.24
16,CTTGACACGTGTGAGG,-0.02
17,TAAAACACGTGTATTA,0.14
18,ATTTACACGTGAGTTC,0.3
19,AGCCGCACGTGTGTTG,0.12
20,TGGGGCACGTGTTTAA,-0.12
21,GATATCACGTGGTGAG,0.01
22,CACGTCACGTGGGGTA,-0.08
23,TATCTCACGTGTGGGA,0.21

row,Sequence,relative binding free energy [kcal/mol]
1,AGCAGCACGTGTAGGG,-0.06
2,AGGTACACGTGTCTTG,-0.04
3,TGTGACACGTGATTGG,0.17
4,TTGTACACGTGGCGTT,0.03
5,CCTGTCACGTGTTGTA,0.09
6,GTTTGCACGTGGGTTA,0.03
7,ATGTGCACGTGATGCA,0.03
8,TATAGCACGTGGCTGT,-0.16
9,GTCTGCACGTGAGGAG,0.22
10,CTAGTCACGTGGTAGA,0.03
11,TGGGCCACGTGACGGG,0.04
12,ATTTTCACGTGTGAGG,0.33
13,TGGGGCACGTGGATCT,-0.13
14,ATACTCACGTGGGGGA,0.03
15,CGGGTCACGTGGGGTT,0
16,TAGGACACGTGGGTCG,-0.14
17,TTCATCACGTGGGGCT,-0.04
18,CTATTCACGTGGATTG,0.14
19,TAGCGCACGTGAGGTG,0.01
20,GTAGGCACGTGGGCAA,-0.15
21,GCTGGCACGTGGAGTG,0.05
22,AGAGTCACGTGGTATT,0.03
23,TGTTTCACGTGATGAA,0.32

row,Sequence,relative binding free energy [kcal/mol]
1,AATGCCACGTGAAGGG,0.16
2,AGATGCACGTGGATAT,-0.11
3,ATAAGCACGTGTGGCG,0
4,ATGGTCACGTGAAGGC,0.24
5,GCACGCACGTGTGTTG,-0.01
6,GATAGCACGTGTGGAA,0.03
7,TGAGTCACGTGGGCGA,0.01
8,GGGCTCACGTGTAGTC,0.36
9,GTGGTCACGTGTCCTT,0.41
10,TTTGACACGTGGCGGC,-0.04
11,AGTATCACGTGGTTGG,0.1
12,TTTGTCACGTGCTGGA,0.15
13,TTATTCACGTGAACTG,0.38
14,GTGTACACGTGGTTTT,0.1
15,GATTTCACGTGTTGGT,0.28
16,GGGTGCACGTGAGAGA,0.25
17,GGAGACACGTGGTGGG,-0.1
18,TAATTCACGTGCTTGG,0.06
19,GCAGACACGTGTAGGG,0.21
20,AAGTTCACGTGTTTTC,0.31
21,ATATACACGTGTAGGT,0.01
22,TAGAGCACGTGAAGTG,0.12
23,TCTTTCACGTGGTACG,0.21

row,Sequence,relative binding free energy [kcal/mol]
1,AGATACACGTGGGTGT,-0.39
2,TGTGTCACGTGCTTCG,-0.01
3,GTTTGCACGTGCCGTT,-0.03
4,TTTGGCACGTGTACGG,0.06
5,TGGGTCACGTGCCCGG,0.06
6,TGTGTCACGTGTGAAT,0.12
7,GCATACACGTGGGGGT,-0.02
8,TTTTGCACGTGGGGCG,-0.13
9,ATGAACACGTGTTTAA,0.04
10,AATGACACGTGCTGGG,0.05
11,TTATACACGTGGTTGC,-0.04
12,GCTATCACGTGGATGT,0.2
13,TGGAGCACGTGTGTCT,-0.09
14,TTTGGCACGTGCAAGA,-0.07
15,GAGGGCACGTGCGACG,-0.03
16,TGGCTCACGTGTGCAG,0.2
17,GGGGGCACGTGATTAC,0.07
18,CGGGTCACGTGGGAGA,-0.02
19,TGATGCACGTGTGCGA,-0.11
20,TGGAACACGTGAGTTA,0.25
21,ATAGGCACGTGTTAGG,-0.06
22,TAAGTCACGTGTTCAT,0.04
23,GGTAACACGTGGTAGA,0.01
